Experimental data as given in PubChem BioAssay AID1845195 (Molecular Pharmacology Branch, DTP, NCI, 2023).
Not every entry of the source has a single result; some have several. Only these are listed. The source may hold further records. The records of an entry are repeated measurements across runs, samples, wells, individuals or studies.

System: 156681-154-R-J1 tumor spheroid viability
Test: Anticancer human tumor 156681-154-R-J1 patient-derived melanoma cell line growth inhibition
Conditions: stronger effect = lower value, spheroids with HUVEC and MSC
Excerpt: Multicellular complex tumor spheroid response to DNA repair inhibitors in combination with DNA-damaging drugs
This study explores the anticancer activities of DNA-damaging drugs and inhibitors of DNA damage repair, both as single agents and in combinations. Complex tumor spheroids comprised of malignant cells, endothelial cells and mesenchymal stem cells served as an in vitro model for human solid tumors. This model system incorporates physiologically relevant features and patient-derived or established malignant cell lines with clinically relevant genetic alterations from many tumor types. Twenty-six patient-derived or established malignant cell lines were evaluated representing sarcoma, melanoma, small cell lung cancer (SCLC), non-small cell lung cancer (NSCLC), as well as bladder, ovarian and pancreatic cancers. The concentration ranges selected for each drug and investigational agent were based upon clinically achievable concentrations if the clinical Cmax of the agent was known.
Compounds. The drugs and compounds olaparib (NSC753686), talazoparib (NSC767125), berzosertib (NSC777718), elimusertib (NSC800525), nedisertib (NSC802822), VX-984 (NSC792969), AZD-1390 (NSC803789), temozolomide (NSC362856), topotecan (NSC609699), trabectedin (NSC813783), staurosporine (NSC755774), and gemcitabine (NSC613327) were obtained from the National Cancer Institute (NCI) Developmental Therapeutics Program Chemical Repository. The FDA-approved anticancer drug set is available from the Developmental Therapeutics Program at https://dtp.cancer.gov/organization/dscb/obtaining/available_plates.htm. […] The stock solutions were prepared in dimethyl sulfoxide (DMSO, Sigma-Aldrich, St. Louis, MO, cat. D2650) at 400-fold the tested concentration and stored at -70 degrees C. Prior to their use, the stock solutions were diluted in fresh medium and the final DMSO concentration in the assay was 0.25% (v/v). All drugs and investigational agents were tested over a range starting from a high concentration at or near the clinical Cmax and decreasing in half-log increments. If the clinical Cmax for an agent had not been determined, the highest concentration tested was 10 microM.
Cell Lines. The patient-derived cancer cell (PDC) lines: 156681-154-R-J1-PDC, 283228-195-R-J1-PDC, 287954-098-R-J1-PDC, 292921-168-R-J2-PDC, 349418-098-R-PDC, 425362-245-T-J1-PDC, 556581-035-R-J1-PDC, and BL0293-F563-PDC were received from the NCI Patient-Derived Models Repository (PDMR, https://pdmr.cancer.gov). The established cell lines HS-SY-2 (RRID:CVCL_8719), MPNST, and SYO-1 (RRID:CVCL_7146) were obtained from the Sloan Kettering Institute. The alveolar soft parts sarcoma cell line ASPS-1 (RRID:CVCL_S738) was established at the NCI and grown from internal seed stocks. The following established cell lines were purchased from the American Type Culture Collection (ATCC, Manassas, VA): G-401 (ATCC, cat. CRL-1441, RRID:CVCL_0270), SW982 (ATCC, cat. HTB-93, RRID:CVCL_1734), VA-ES-BJ (ATCC, cat. CRL-2138, RRID:CVCL_1785), NCI-H719 (ATCC, cat. CRL-5837, RRID:CVCL_1582), NCI-H196 (ATCC, cat. CRL-5823, RRID:CVCL_1509), NCI-H841 (ATCC, cat. CRL-5845, RRID:CVCL_1595), NCI-H1618 (ATCC, cat. CRL-5879, RRID:CVCL_1480), NCI-H1876 (ATCC, cat. CRL-5902, RRID:CVCL_1503), DMS 114 (ATCC, cat. CRL-2066; RRID:CVCL_1174), NCI-H211 (ATCC, cat. CRL-5824; RRID:CVCL_1529), and SW 1271 (ATCC, cat. CRL-2177, RRID:CVCL_1716). […]
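Further: spheroids exposed to compounds for 7 days before readout; percent of vehicle control viability where 100% = DMSO-treated spheroids.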

## Cn1nnc2c(C(N)=O)ncn2c1=O
Compound alone 3.16 µM
  viability, T/C: 69.2, 75.5, 83.8, 103, 81.2, 81, 96.9, 62.3, 89.7, 87%
Compound alone 10 µM
  viability, T/C: 68.5, 63.8, 83.3, 71.5, 73, 101, 75.9, 59.6, 62.1, 94.1%
Compound alone 100 µM
  viability, T/C: 55, 51.4, 48.2, 48.6, 46.6, 56.8, 74.1, 53.3, 50.4, 54.2%

## CC[C@@]1(O)C(=O)OCc2c1cc1n(c2=O)Cc2cc3c(CN(C)C)c(O)ccc3nc2-1
Compound alone 0.003 µM
  viability, T/C: 83.8, 102, 95.6, 111, 90.9, 88.8, 100, 95.3, 91.3, 93.5%
Compound alone 0.03 µM
  viability, T/C: 60.4, 61, 62.6, 43.8, 58.4, 75.3, 77.9, 62.5, 57.2, 64.7%
